Target: ApoE4 (lipid-free) (human) (UniProt P02649)
Assay: SDS-stable complex by SDS-PAGE and Western blot; 50 uM S100A9 with 2 uM lipid-free or lipidated ApoE isoform, PBS, 42 C, 70 h, non-stirring; reducing Laemmli buffer, 4-20% gel; Coomassie and Western blot with anti-S100A9 polyclonal antibody (Invitrogen)

Work on “ApoE4 (lipid-free) (a stretch of the chain, no sequence given) (natural protein; other documents disagree on this pair)” yielded a stoichiometry N of 2.
